Literature values as cited in publication PMC10741027, “Risk Assessment of Psychotropic Drugs on Mitochondrial Function Using In Vitro Assays” (Biomedicines, 2023).
Read-outs that look alike come from different tables or passages of the source.

Experiments:
CI-linked respiration [1] = details: read-out: CI-linked respiration IC50; pig brain mitochondria; cited from earlier work
CII-linked respiration = details: read-out: CII-linked respiration IC50; pig brain mitochondria; cited from earlier work
F1F0-ATPase = details: read-out: F1F0-ATPase activity IC50; submitochondrial particles; cited from earlier work
CI-linked respiration [2] = details: read-out: CI-linked respiration IC50; isolated rat brain mitochondria; cited from earlier work
ATP synthase = details: read-out: concentration giving 50% of the effect on ATP synthase; non-competitive, binding to membrane F0 component; cited from earlier work
respiratory CI = tested on: respiratory CI; parameters: method as in PMID 9309697; details: human brain cortex; read-out: CI inhibition IC50; cited from earlier work

Question: With `O=C1CCc2ccc(OCCCCN3CCN(c4cccc(Cl)c4Cl)CC3)cc2N1` [Aripiprazole] as the compound, how does the IC50 (CI-linked respiration [1]) read?
Answer: The IC50 was 13 µM.

Question: What about the IC50 (CII-linked respiration) of the same compound?
Answer: Its IC50 is 32 µM.

Question: What does the source list for `CNCCC(Oc1ccc(C(F)(F)F)cc1)c1ccccc1` (stereo not shown) [Fluoxetine]?
Answer: IC50 (F1F0-ATPase): 80 µM; IC50 (CI-linked respiration [1]): 86.2 µM; IC50 (CI-linked respiration [2]): 150 µM; IC50 (ATP synthase): 60 µM

Question: What does the source list for `O=C(CCCN1CCC(O)(c2ccc(Cl)cc2)CC1)c1ccc(F)cc1` [Haloperidol]?
Answer: IC50 (CI-linked respiration [1]): 64.9 µM; IC50 (respiratory CI): 100 µM

Question: What does the source list for `OCCOCCN1CCN(C2=Nc3ccccc3Sc3ccccc32)CC1` [Quetiapine]?
Answer: IC50 (CI-linked respiration [1]): 424 µM; IC50 (CII-linked respiration): 49 µM
